This is one part of the list. The full chains were built here from the parent and the listed change. Inactive controls read about 0.05.
B1: TEV protease; numbered along this chain (parent)
chain: MGESLFKGPRDYNPISSSICHLTNESDGHTTSLYGIGFGPFIITNKHLFRRNNGTLVVQSLHGVFKVKDTTTLQQHLVDGRDMIIIRMPKDFPPFPQKLKFREPQREERICLVTTNFQTKSMSSMVSDTSCTFPSGDGIFWKHWIQTKDGQCGSPLVSTRDGFIVGIHSASNFTNTNNYFTSVPKNFMELLTNQEAQQWVSGWRLNADSVLWGGHKVFMVKPEEPFQPVKEATQL

Variants of: B1
Assay: raw area under fraction-flipped curve 0-4 h after induction (AUC4h, not background-subtracted), DNA-recorder readout of cleavage of the substrate (dimensionless); higher = more cleavage of the substrate by the protease variant
Conditions: temperature: 34 °C; time window: 0-4 h after rhamnose induction
Protocol: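 In vivo DNA recorder in E. coli TOP10(DE3) ΔrhaA at 34 °C. Each TEVp single-site mutant (parent TEVp 0) is paired with a single-site variant of the 7-mer TEVs (canonical ENLYFQ|S). The substrate sits between flexible linkers in a Bxb1-sfGFP-TEVs-SsrA fusion, so cleavage stabilises Bxb1 and speeds flipping of a recombination array, read by NGS. The value is the raw area under the fraction-flipped curve over 0-4 h after rhamnose induction (AUC4h), with ≥20 reads per time point. It is not background-subtracted; inactive controls average about 0.047.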
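Further: Bxb1 expression induced with 0.2% (w/v) L-rhamnose at OD600 near 0.5, cultures sampled hourly, flipped fraction per protease–substrate barcode pair counted by paired-end Illumina sequencing.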

Row | Variant | area with substrate ENLCFQS | area with substrate ENLDFQS | area with substrate ENLEFQS | area with substrate ENLFFQS | area with substrate ENLGFQS | area with substrate ENLHFQS | area with substrate ENLIFQS | area with substrate ENLKFQS | area with substrate ENLLFQS | area with substrate ENLMFQS | area with substrate ENLNFQS | area with substrate ENLPFQS | area with substrate ENLQFQS | area with substrate ENLRFQS | area with substrate ENLSFQS | area with substrate ENLWFQS | area with substrate ENLTFQS | area with substrate ENLVFQS
1 | MGESLFKGPRDYNPISSSICHLTNESDGHTTSLYGIGFGPFIITNKHLFRRNNGTLVVQSLHGVFKVKDTTTLQQHLVDGRDMIIIRMPKDFPPFPQKLKFREPQREERICLVTTNFQTKSMSSMVSDTSCTFPSGDGIFWKHWIQTKDGQCGSPLVWTRDGFIVGIHSASNFTNTNNYFTSVPKNFMELLTNQEAQQWVSGWRLNADSVLWGGHKVFMVKPEEPFQPVKEATQL [S158W] | 0.053 | 0.0646 | 0.0555 | 0.0661 | 0.0514 | 0.0583 | 0.0601 | 0.0419 | 0.0476 | 0.0359 | 0.0592 | 0.0535 | 0.0396 | 0.043 | 0.0462 | 0.052 | – | –
2 | MGESLFKGPRDYNPISSSICHLTNESDGHTTSLYGIGFGPFIITNKHLFRRNNGTLVVQSLHGVFKVKDTTTLQQHLVDGRDMIIIRMPKDFPPFPQKLKFREPQREERICLVTTNFQTKSMSSMVSDTSCTFPSGDGIFWKHWIQTKDGQCGSPLVSARDGFIVGIHSASNFTNTNNYFTSVPKNFMELLTNQEAQQWVSGWRLNADSVLWGGHKVFMVKPEEPFQPVKEATQL [T159A] | 0.0985 | – | – | 0.114 | – | 0.0791 | – | – | – | 0.0936 | 0.0745 | – | – | – | 0.0583 | – | – | –
3 | MGESLFKGPRDYNPISSSICHLTNESDGHTTSLYGIGFGPFIITNKHLFRRNNGTLVVQSLHGVFKVKDTTTLQQHLVDGRDMIIIRMPKDFPPFPQKLKFREPQREERICLVTTNFQTKSMSSMVSDTSCTFPSGDGIFWKHWIQTKDGQCGSPLVSTRPGFIVGIHSASNFTNTNNYFTSVPKNFMELLTNQEAQQWVSGWRLNADSVLWGGHKVFMVKPEEPFQPVKEATQL [D161P] | 0.0543 | – | 0.041 | – | – | 0.0412 | – | 0.0534 | – | – | – | – | – | – | – | – | – | –
4 | MGESLFKGPRDYNPISSSICHLTNESDGHTTSLYGIGFGPFIITNKHLFRRNNGTLVVQSLHGVFKVKDTTTLQQHLVDGRDMIIIRMPKDFPPFPQKLKFREPQREERICLVTTNFQTKSMSSMVSDTSCTFPSGDGIFWKHWIQTKDGQCGSPLVSTRDGFIVGNHSASNFTNTNNYFTSVPKNFMELLTNQEAQQWVSGWRLNADSVLWGGHKVFMVKPEEPFQPVKEATQL [I167N] | 0.048 | 0.0614 | 0.0536 | 0.0602 | – | – | – | 0.0622 | 0.054 | 0.0667 | 0.0653 | 0.0439 | – | 0.0757 | – | 0.0579 | 0.0874 | –
5 | MGESLFKGPRDYNPISSSICHLTNESDGHTTSLYGIGFGPFIITNKHLFRRNNGTLVVQSLHGVFKVKDTTTLQQHLVDGRDMIIIRMPKDFPPFPQKLKFREPQREERICLVTTNFQTKSMSSMVSDTSCTFPSGDGIFWKHWIQTKDGQCGSPLVSTRDGFIVGIHGASNFTNTNNYFTSVPKNFMELLTNQEAQQWVSGWRLNADSVLWGGHKVFMVKPEEPFQPVKEATQL [S169G] | 0.0543 | 0.059 | 0.0743 | 0.0599 | 0.064 | 0.0559 | 0.0629 | 0.071 | – | 0.0579 | 0.0778 | 0.0612 | 0.0767 | 0.0527 | 0.0509 | – | – | 0.0473

From the supplement of paper PMC12217912
